ChEMBL document CHEMBL4888484, “Replenishing the malaria drug discovery pipeline: Screening and hit evaluation of the MMV Hit Generation Library 1 (HGL1) against asexual blood stage Plasmodium falciparum ,using a nano luciferase reporter read-out” (2022)
Values joined by “and” are separate entries in the source; they are usually repeats but may differ in a detail not shown here. Equal entries are not always repeated. Screen size: about 150,000 compounds; about 540 (0.36%) showed an effect of 50% or more. Some of the results follow.

System: Plasmodium falciparum
Assay: Primary screen in NF54 nanoGlo assay, in single point, at 2uM, 72h; a lower Z score goes with more inhibition
Assay type: functional, Erythrocyte
Conditions: timepoint 72 hour

| Structure (SMILES) | % Inhibition | Z score | % Inhibition (2 µM) |
| --- | --- | --- | --- |
| C=C(C)CN1C(=O)N[C@@]2(CCS(=O)(=O)c3ccc(F)cc32)C1=O | 15% | -1.7 | – |
| O=C(N[C@H]1CCc2nccn2C1)c1cc2c(F)cccc2s1 | -17% | 2.57 | – |
| COCC(=O)N1CC[C@@]2(CCCN(Cc3cc(OC)ccc3F)C2=O)C1 | -2% | 0.45 | – |
| C=C(C)CN(CC)C(=O)Nc1ccc(OC2CCOCC2)c(C)c1 | 2% | -0.25 | – |
| CCc1cc(C(=O)N2CC[C@H]3[C@H](CCC(=O)N3CCc3c[nH]cn3)C2)on1 | 5% | -0.96 | – |
| Cc1cc(O)ccc1C(=O)N(C)CCN(C)C1CCCC1 | -12% | 1.53 | – |
| CC(C)C(N[C@@H](C)CO)c1ccc(F)c(F)c1 (some centres undefined) | -8% | 0.97 | – |
| CN(C)Cc1ccc(CC2CCN(Cc3cccnc3)CC2)cc1 | -5% | 0.68 | – |
| Cc1ccc(CN2CCC(N3C(=O)[C@H]4CCCN4C3=O)C2=O)cc1 (some centres undefined) | -7% | 0.81 | – |
| c1ccc(-c2nc(CN3CCc4cncnc4C3)cs2)cc1 | -12% | 1.77 | – |
| CC(OCC1CCCO1)C(=O)N1CCCc2cccc(F)c21 (centres undefined) | 11% | -1.46 | – |
| Cc1cc2nc(C)c(=O)n(CC(=O)NCCCN3CCCC[C@@H]3C)c2cc1C | -3% | 0.63 | – |
| CCC1(CC)CCN(C(=O)[C@H]2CCCN(C3CCN(Cc4cccnc4)CC3)C2)C1 | 1% | -0.14 | – |
| CC[C@H](NCc1cc(C#CCO)cs1)c1nc(C)c(C)s1 | -8% | 0.83 | – |
| CN(C)c1ccc(/C=C/c2ccnc3ccc(-c4ccccc4)cc23)cc1 | 16% | -2.11 | – |
| N#Cc1ccc(OCC(=O)N2CCn3c2nc2ccccc23)cc1 | 4% | -0.68 | – |
| Cc1ccc(NC(=O)c2scc(-c3ccc(F)cc3)c2S(=O)(=O)N(C)c2cccc(F)c2)cc1 | -4% | 0.48 | – |
| O=C(CN[C@H](c1ccccc1)C1CCCCC1)Nc1nnc(-c2ccco2)o1 | -4% | 0.63 | – |
| CCCCCOCC(=O)Nc1cc(-c2nccn2C)n[nH]1 | -8% | 1.3 | – |
| Cc1nccnc1N1CC[C@H]2[C@H](CCC(=O)N2CCc2ccccn2)C1 | -11% | 2 | – |
| CCc1n[nH]c(NC(=O)Cc2ccc(C)nc2)c1Br | -9% | 0.92 | – |
| Cc1nc(C(=O)NC2CCCC2)c(C)o1 | -4% | 0.52 | – |
| O=C(CCc1cc(O)no1)N1CCc2ncnc(N3CCCC3)c2CC1 | -6% | 1 | – |
| CCCOC[C@H]1CCN(C(=O)c2cnn3ccn(C)c23)C1 | 2% | -0.28 | – |
| C#Cc1cncc(-c2noc([C@@](C)(O)C3CC3)n2)c1 | -26% | 2.75 | – |
| Cn1nnc2c(C(=O)NCC3(C(F)F)CC3)ccnc21 | -9% | 1.23 | – |
| NS(=O)(=O)c1ccc(CCNC(=O)[C@@H]2CCN2S(=O)(=O)c2ccccc2)cc1 | -42% | 4.89 | – |
| CCn1nc(CN2CC[C@@]3(C2)C(=O)Nc2ccccc23)c2ccccc21 | 2% | -0.33 | – |

| Structure (SMILES) | % Inhibition | Z score | % Inhibition (2 µM) |
| --- | --- | --- | --- |
| Cc1cc(-c2c(-c3ccc4ccccc4c3)[nH]c3c2c(=O)n(C)c(=O)n3C)c(C)s1 | -1% | 0.25 | – |
| CC(C)CCn1c(C(=O)Nc2ccccc2)cc2cc(NC(=O)c3ccc(F)cc3)ccc21 | 5% | -0.57 | – |
| CCCCc1nc(C)c(C(=O)NCc2c(C)cc(C)[nH]c2=O)s1 | -3% | 0.34 | – |
| CC(C)c1[nH]ncc1C(=O)N[C@H]1CCCN(c2cccc(F)c2)C1 | 7% | -1.09 | – |
| Oc1ccc2ccccc2c1CN1CCc2ccccc21 | -25% | 2.96 | – |
| C(=C[C@@H]1CCCCCN1)c1ccccc1 | -11% | 1.66 | – |
| COc1ccc(C(=O)Nc2ccc3c(c2)C(=O)Nc2cccnc2O3)cc1OC | – | – | 41% and 20% |
| COCC1(F)CCN(Cc2c(-c3cccc(C)c3)nc3ccccn23)CC1 | -19% | 3.38 | – |
| Cc1oc(C)c(C(=O)N2CCCN3CCC[C@H]3C2)c1C | -1% | 0.21 | – |
| CC1CCCN(C(=O)c2cc(Oc3ccccc3)ccn2)C1CN (centres undefined) | 2% | -0.29 | – |
| O=C(NC1CC1)[C@H]1CCCN(c2snc3ccccc23)C1 | -3% | 0.32 | – |
| COc1ccc(Nc2cc(C(=O)N3CCC(C)CC3)nc3ccc(F)cc23)c(OC)c1 | -10% | 1.08 | – |
| C[C@H](Nc1ccc(C#N)cn1)c1cccc(-n2cccn2)c1 | 0% | 0.03 | – |
| Cc1cc(C)n(C[C@H](C)N2CCOc3ccccc3C2)n1 | -9% | 1.41 | – |
| CN1CCC(n2nc(-c3ccccn3)nc2[C@@H]2COc3ccccc3C2)CC1 | -11% | 1.41 | – |
| O=C(Cc1cccnc1)NCc1cccc(-c2nnn[nH]2)c1 | -10% | 0.94 | – |
| O=S(=O)(c1ccc2c(c1)OCCO2)N1CCC[C@@](O)(CO)C1 | -5% | 0.88 | – |
| CN(Cc1ccc(O)cc1)c1ncnc2nc(N)ccc12 | -14% | 1.82 | – |
| C[C@@H](CNC(=O)NCc1cccnc1)N(C)Cc1ccccc1 | 1% | -0.24 | – |
| Cn1cc(CNC(=O)N2CCC(CCc3ccc(F)cc3F)CC2)nn1 | 8% | -1.55 | – |
| Cc1ccc2c(c1)C[C@@H](C(=O)NCCc1csc(N)n1)N2 | 5% | -0.81 | – |
| CCCCOc1c(Cl)cc(CNC(C)(C)CO)cc1OCC | 14% | -1.87 | – |
| Cc1cccc(C2CC2C(=O)N2CCN(c3ncc(F)cn3)CC2)c1 (centres undefined) | 4% | -0.34 | – |
| CCOC(=O)c1cnc(N2CCN(Cc3cccnc3)CC2)s1 | -2% | 0.17 | – |
| c1ccc(OCCN(Cc2ccc3[nH]ccc3c2)C[C@H]2CCCO2)cc1 | -6% | 1.23 | – |
| O=C(NCc1ccccc1O)[C@]1(c2ccccc2)CCCN1 | -15% | 2.54 | – |
| CC(C)(CNC(=O)COc1ccc(CC#N)cc1)N1CCCCC1 | -35% | 4.06 | – |
